The numbers were not newly measured in PMC11006913, which cites them from elsewhere.

Where a chain is given by its changes, count along the chain named. This is one part of the list.

Holding throughout (conditions): PBM; conditions not shown; double strand, one strand shown; scale: upbm affinity estimate (log intensity, higher = more binding, comparable within an allelic series)
The target of data set [1] is T1, PBX4 (Homo sapiens) (UniProt Q9BYU1).
T1 sequence: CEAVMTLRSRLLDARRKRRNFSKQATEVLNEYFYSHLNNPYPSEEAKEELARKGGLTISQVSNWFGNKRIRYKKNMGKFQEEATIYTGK

In data set [2] the target is T2, PBX4 R215Q (Homo sapiens) (UniProt Q9BYU1).
T2 sequence: T1 sequence with R19Q

The target of data set [3] is PROP1 R112Q (Homo sapiens) (UniProt O75360).
UniProt O75360, sequence (O75360 56-141 R112Q): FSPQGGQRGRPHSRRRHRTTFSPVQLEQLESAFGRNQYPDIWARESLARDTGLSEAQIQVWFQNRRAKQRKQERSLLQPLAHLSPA
The target in data set [4] is PITX2 L100Q (Homo sapiens) (UniProt Q99697).
In data set [5] the target is PITX2 R108H (Homo sapiens) (UniProt Q99697).
The target in data set [6] is PITX2 R130W (Homo sapiens) (UniProt Q99697).
For data set [7], the target named is PITX2 T114P (Homo sapiens) (UniProt Q99697).

ATCAATCA [8-mer ATCAATCA]: the binding signal in data set [1] is 11.1; in data set [2], 10.3; in data set [3], 12.3.
In the case of ATTTAAGA [8-mer ATTTAAGA], the binding signal in data set [4] is 9.84; in data set [5], 8.8; in data set [6] it was 8.63.
CTTGTCAA [8-mer CTTGTCAA]: the binding signal was 10.7 in data set [1] and 10.1 in data set [2].
With AACTTAAA [8-mer AACTTAAA], the values for the binding signal in data set [4], in data set [5] and in data set [6] were 9.37, 8.7 and 8.69, respectively.
As for ACGGGCGA [8-mer ACGGGCGA], the binding signal was 9.75 in data set [1]; 9.76 in data set [2]; 8.16 in data set [4]; 8.2 in data set [5]; 8.11 in data set [6]; 8.22 in data set [7].
Consider CACCCCAA [8-mer CACCCCAA], for which the binding signal in data set [1] is 9.96; in data set [2] it was 9.94.
GGCGATTA [8-mer GGCGATTA]: the binding signal in data set [4] is 10.3; in data set [5], 8.84; in data set [6] it was 8.36.
With AAATGACG [8-mer AAATGACG], the results for the binding signal in data set [1] and in data set [2] were 10.6 and 10.1, respectively.
With ATTACACA [8-mer ATTACACA], the binding signal was 9.76 in data set [4], 8.98 in data set [5] and 8.84 in data set [6].
Regarding CTGAATTA [8-mer CTGAATTA], the binding signal in data set [4] is 10.1; in data set [5], 8.98; in data set [6] it was 8.71.
Take TAAGCTGA [8-mer TAAGCTGA]: the binding signal in data set [4] is 10.2; in data set [5], 8.78; in data set [6] it was 8.53.
On to CGTCATCA [8-mer CGTCATCA], for which the results for the binding signal in data set [1] and in data set [2] were 10.7 and 10.1, respectively.
Turning to AGATCAAT [8-mer AGATCAAT], the values for the binding signal in data set [4], in data set [5] and in data set [6] were 9.81, 8.72 and 8.52, respectively.
In the case of ACATCAAT [8-mer ACATCAAT], the binding signal in data set [1] is 10.9; in data set [2], 10.2; in data set [3], 12.
As to ATGATTGA [8-mer ATGATTGA], the binding signal was 10.8 in data set [1] and 10.3 in data set [2].
On to CGTCAATC [8-mer CGTCAATC], for which the binding signal is 10.7 in data set [1] and 10.1 in data set [2].
On to TAAGCTTA [8-mer TAAGCTTA], for which the binding signal in data set [4] was 10.9.
In the case of ATGACTAA [8-mer ATGACTAA], the results for the binding signal in data set [4], in data set [5] and in data set [6] were 9.47, 8.71 and 8.64, respectively.
With CATGTCAA [8-mer CATGTCAA], the binding signal in data set [1] was 11; in data set [2], 10.3.
As for GAGATTTA [8-mer GAGATTTA], the binding signal in data set [4] was 10.4; in data set [5] it was 8.95; in data set [6], 8.54.
For CTGGATAA [8-mer CTGGATAA], the binding signal in data set [4] was 9.96; in data set [5] it was 8.71; in data set [6] it was 8.55.
On to ACCCAGCC [8-mer ACCCAGCC], for which the binding signal is 9.6 in data set [1] and 9.65 in data set [2].
In the case of ATTTGTAA [8-mer ATTTGTAA], the binding signal in data set [4] was 9.53; in data set [5] it was 8.91; in data set [6], 8.78.
ATATCCTC [8-mer ATATCCTC]: the binding signal is 9.79 in data set [4], 8.74 in data set [5] and 8.66 in data set [6].
With ATTTGATG [8-mer ATTTGATG], the results for the binding signal in data set [1] and in data set [2] were 10.8 and 10.2, respectively.
Regarding GAGGCCCC [8-mer GAGGCCCC], the binding signal was 9.68 in data set [1]; 9.71 in data set [2]; 8.23 in data set [4]; 7.97 in data set [5]; 7.87 in data set [6]; 8.04 in data set [7].
For CGTCAAAA [8-mer CGTCAAAA], the values for the binding signal in data set [1] and in data set [2] were 10.9 and 10.3, respectively.
On to GATTACGC [8-mer GATTACGC], for which the binding signal was 10.2 in data set [4], 8.9 in data set [5] and 8.57 in data set [6].
As to TAATGCAA [8-mer TAATGCAA], the binding signal was 9.87 in data set [4], 8.86 in data set [5] and 8.8 in data set [6].
As for GTATTTTA [8-mer GTATTTTA], the figures for the binding signal in data set [4] and in data set [5] were 9.53 and 8.88, respectively.
As to ACTTAACT [8-mer ACTTAACT], the binding signal in data set [4] is 9.67; in data set [5], 8.82; in data set [6], 8.72.
With GGGACCCA [8-mer GGGACCCA], the binding signal in data set [4] is 8.23; in data set [5] it was 8.13; in data set [6], 8.01; in data set [7], 8.1.
ATAGATTA [8-mer ATAGATTA]: the binding signal is 10.9 in data set [4], 9.31 in data set [5], 8.9 in data set [6] and 9.45 in data set [7].
Turning to AGTGATAA [8-mer AGTGATAA], the binding signal was 9.73 in data set [4], 8.91 in data set [5] and 8.85 in data set [6].
For CTCGTCAC [8-mer CTCGTCAC], the binding signal is 10.9 in data set [1] and 10.2 in data set [2].
Regarding AGCGCGGG [8-mer AGCGCGGG], the binding signal in data set [4] is 8.29; in data set [5] it was 8.14; in data set [6], 7.97; in data set [7], 8.09.
As for TAATCCCA [8-mer TAATCCCA], the binding signal was 11.5 in data set [4], 9.66 in data set [5], 8.65 in data set [6] and 10.2 in data set [7].
As for AACTAATC [8-mer AACTAATC], the binding signal was 10.9 in data set [4], 9.24 in data set [5], 8.69 in data set [6] and 9.51 in data set [7].
In the case of CACGCCCC [8-mer CACGCCCC], the binding signal was 8.18 in data set [4], 8.11 in data set [5], 7.95 in data set [6] and 8.2 in data set [7].
In the case of AGATTAGC [8-mer AGATTAGC], the binding signal in data set [4] is 10.9; in data set [5], 9.11; in data set [6] it was 8.53; in data set [7], 9.32.
In the case of CCCGTGTC [8-mer CCCGTGTC], the binding signal was 8.28 in data set [4], 8.1 in data set [5], 7.94 in data set [6] and 8.07 in data set [7].
Consider GGATCACC [8-mer GGATCACC], for which the binding signal in data set [4] is 9.61; in data set [5] it was 8.45; in data set [6] it was 8.4; in data set [7] it was 8.54.
Turning to AAGCTATA [8-mer AAGCTATA], the binding signal is 9.71 in data set [4], 8.79 in data set [5], 8.6 in data set [6] and 8.75 in data set [7].
In the case of CAGCCGCG [8-mer CAGCCGCG], the binding signal was 8.13 in data set [4], 7.96 in data set [5], 7.96 in data set [6] and 8.02 in data set [7].
For the sequence CTAAGCCA [8-mer CTAAGCCA], the binding signal in data set [4] was 10.3; in data set [5], 8.59; in data set [6], 8.35; in data set [7], 8.76.
Take GTAGATTA [8-mer GTAGATTA]: the binding signal in data set [4] is 10.9; in data set [5], 9.3; in data set [6] it was 8.8; in data set [7], 9.42.
Take GGATTACA [8-mer GGATTACA]: the binding signal is 11.3 in data set [4], 9.5 in data set [5], 8.7 in data set [6] and 9.84 in data set [7].
